Our source for the binding signal values is article PMC9911399, “Two distinct binding modes provide the RNA-binding protein RbFox with extraordinary sequence specificity”.

To fix the notation:
T1: RBFOX1 RRM RbFoxmut (Fox-RRM*) (Homo sapiens, UniProt Q9NWB1 109-208, R118D;E147R;N151S;E152T)
T1 sequence: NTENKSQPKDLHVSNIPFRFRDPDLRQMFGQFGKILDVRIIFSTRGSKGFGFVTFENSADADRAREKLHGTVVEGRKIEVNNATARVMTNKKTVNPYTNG

B1: CGCGUCA (DNA:RNA)
RNA: GGGAGACCGGAAUUCAGAUUGUCCCGCGUCAUUAAAUCCCGUCGUAGCCACCA
DNA 1: CAATCTGAATTCCGGTCTCCC
DNA 2: TGGTGGCTACGACGGGATT
B2: UUUCGGU (DNA:RNA)
RNA: GGGAGACCGGAAUUCAGAUUGUCCUUUCGGUUUAAAUCCCGUCGUAGCCACCA
DNA 1: CAATCTGAATTCCGGTCTCCC
DNA 2: TGGTGGCTACGACGGGATT
B3: ACGAUGA (DNA:RNA)
RNA: B1 RNA with C25A, G26C, C27G, G28A, C30G
DNA 1: CAATCTGAATTCCGGTCTCCC
DNA 2: TGGTGGCTACGACGGGATT
B4: GAAAUCG (DNA:RNA)
RNA: B1 RNA with C25G, G26A, C27A, G28A, A31G
DNA 1: CAATCTGAATTCCGGTCTCCC
DNA 2: TGGTGGCTACGACGGGATT
B5: AUGUGGC (DNA:RNA)
RNA: B2 RNA with U25A, U27G, C28U, U31C
DNA 1: CAATCTGAATTCCGGTCTCCC
DNA 2: TGGTGGCTACGACGGGATT
B6: CCUGACU (DNA:RNA)
RNA: B1 RNA with G26C, C27U, U29A, A31U
DNA 1: CAATCTGAATTCCGGTCTCCC
DNA 2: TGGTGGCTACGACGGGATT
B7: CGCACCU (DNA:RNA)
RNA: B1 RNA with G28A, U29C, A31U
DNA 1: CAATCTGAATTCCGGTCTCCC
DNA 2: TGGTGGCTACGACGGGATT
B8: AGUGGGU (DNA:RNA)
RNA: B2 RNA with U25A, U26G, C28G
DNA 1: CAATCTGAATTCCGGTCTCCC
DNA 2: TGGTGGCTACGACGGGATT
B9: GUUUGCG (DNA:RNA)
RNA: B2 RNA with U25G, C28U, G30C, U31G
DNA 1: CAATCTGAATTCCGGTCTCCC
DNA 2: TGGTGGCTACGACGGGATT
B10: CCAAGAC (DNA:RNA)
RNA: B1 RNA with G26C, C27A, G28A, U29G, C30A, A31C
DNA 1: CAATCTGAATTCCGGTCTCCC
DNA 2: TGGTGGCTACGACGGGATT
B11: CCACAAU (DNA:RNA)
RNA: B2 RNA with U25C, U26C, U27A, G29A, G30A
DNA 1: CAATCTGAATTCCGGTCTCCC
DNA 2: TGGTGGCTACGACGGGATT
B12: UCGUACG (DNA:RNA)
RNA: B1 RNA with C25U, G26C, C27G, G28U, U29A, A31G
DNA 1: CAATCTGAATTCCGGTCTCCC
DNA 2: TGGTGGCTACGACGGGATT
B13: AAAAGUU (DNA:RNA)
RNA: B2 RNA with U25A, U26A, U27A, C28A, G30U
DNA 1: CAATCTGAATTCCGGTCTCCC
DNA 2: TGGTGGCTACGACGGGATT
B14: GAAAACU (DNA:RNA)
RNA: B1 RNA with C25G, G26A, C27A, G28A, U29A, A31U
DNA 1: CAATCTGAATTCCGGTCTCCC
DNA 2: TGGTGGCTACGACGGGATT
B15: AAGUGGC (DNA:RNA)
RNA: B2 RNA with U25A, U26A, U27G, C28U, U31C
DNA 1: CAATCTGAATTCCGGTCTCCC
DNA 2: TGGTGGCTACGACGGGATT
B16: CGACCGU (DNA:RNA)
RNA: B2 RNA with U25C, U26G, U27A, G29C
DNA 1: CAATCTGAATTCCGGTCTCCC
DNA 2: TGGTGGCTACGACGGGATT
B17: ACGCGGU (DNA:RNA)
RNA: B2 RNA with U25A, U26C, U27G
DNA 1: CAATCTGAATTCCGGTCTCCC
DNA 2: TGGTGGCTACGACGGGATT
B18: GGAGGUC (DNA:RNA)
RNA: B1 RNA with C25G, C27A, U29G, C30U, A31C
DNA 1: CAATCTGAATTCCGGTCTCCC
DNA 2: TGGTGGCTACGACGGGATT
B19: UAGUGAA (DNA:RNA)
RNA: B2 RNA with U26A, U27G, C28U, G30A, U31A
DNA 1: CAATCTGAATTCCGGTCTCCC
DNA 2: TGGTGGCTACGACGGGATT
B20: ACCUAUA (DNA:RNA)
RNA: B1 RNA with C25A, G26C, G28U, U29A, C30U
DNA 1: CAATCTGAATTCCGGTCTCCC
DNA 2: TGGTGGCTACGACGGGATT
B21: GACAUUG (DNA:RNA)
RNA: B1 RNA with C25G, G26A, G28A, C30U, A31G
DNA 1: CAATCTGAATTCCGGTCTCCC
DNA 2: TGGTGGCTACGACGGGATT
B22: CCAUUCC (DNA:RNA)
RNA: B1 RNA with G26C, C27A, G28U, A31C
DNA 1: CAATCTGAATTCCGGTCTCCC
DNA 2: TGGTGGCTACGACGGGATT
B23: UUUCAAA (DNA:RNA)
RNA: B2 RNA with G29A, G30A, U31A
DNA 1: CAATCTGAATTCCGGTCTCCC
DNA 2: TGGTGGCTACGACGGGATT
B24: CGAUGCA (DNA:RNA)
RNA: B1 RNA with C27A, G28U, U29G
DNA 1: CAATCTGAATTCCGGTCTCCC
DNA 2: TGGTGGCTACGACGGGATT
B25: UGACCAU (DNA:RNA)
RNA: B2 RNA with U26G, U27A, G29C, G30A
DNA 1: CAATCTGAATTCCGGTCTCCC
DNA 2: TGGTGGCTACGACGGGATT
B26: UUGGCCC (DNA:RNA)
RNA: B1 RNA with C25U, G26U, C27G, U29C, A31C
DNA 1: CAATCTGAATTCCGGTCTCCC
DNA 2: TGGTGGCTACGACGGGATT
B27: UACAUCG (DNA:RNA)
RNA: B1 RNA with C25U, G26A, G28A, A31G
DNA 1: CAATCTGAATTCCGGTCTCCC
DNA 2: TGGTGGCTACGACGGGATT
B28: UAUUGUU (DNA:RNA)
RNA: B2 RNA with U26A, C28U, G30U
DNA 1: CAATCTGAATTCCGGTCTCCC
DNA 2: TGGTGGCTACGACGGGATT
B29: AAUGGCC (DNA:RNA)
RNA: B1 RNA with C25A, G26A, C27U, U29G, A31C
DNA 1: CAATCTGAATTCCGGTCTCCC
DNA 2: TGGTGGCTACGACGGGATT
B30: GACUGUC (DNA:RNA)
RNA: B1 RNA with C25G, G26A, G28U, U29G, C30U, A31C
DNA 1: CAATCTGAATTCCGGTCTCCC
DNA 2: TGGTGGCTACGACGGGATT
B31: GUUUCGC (DNA:RNA)
RNA: B2 RNA with U25G, C28U, G29C, U31C
DNA 1: CAATCTGAATTCCGGTCTCCC
DNA 2: TGGTGGCTACGACGGGATT

Numbering of substitutions follows the chain as printed; changes in the protein carry UniProt numbers. Some of the results follow.

This test has as its target T1, RBFOX1 RRM RbFoxmut (Fox-RRM*). Kind of test: EMSA; HiTS-Eq, 1 nM pool, 10 min; buffer printed only for the single-RNA assays: 10 mM Tris pH 7.5, 150 mM NaCl, 3.4 mM EDTA, 0.001% NP-40, 30 C. To be noted: tags: His6 N-terminal (pET28a); label: 5' 32P. The method in brief:
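Relative association constants, normalised to the cognate motif, were derived by comparing read counts of each RNA species with those of the control reaction. The RNA sequenced was the free fraction, separated by 8% native PAGE after a 10 min equilibration in 50 µL of 1 nM 5′-radiolabelled RNA (7 randomized nucleotides) with increasing concentrations of purified wild-type or mutant RbFox RRM.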
On to B1, for which the binding signal was 0.078 KA relative to UGCAUGU. Under B2 stands 0.0835 KA relative to UGCAUGU; under B3, 0.0892 KA relative to UGCAUGU. With B4 the figure was 0.0585 KA relative to UGCAUGU; with B5, 0.159 KA relative to UGCAUGU. Take B6: the binding signal was 0.0744 KA relative to UGCAUGU. With B7 the figure was 0.116 KA relative to UGCAUGU; with B8, 0.133 KA relative to UGCAUGU; with B9, 0.255 KA relative to UGCAUGU. With B10 the figure was 0.0848 KA relative to UGCAUGU. Consider B11, for which the binding signal is 0.0516 KA relative to UGCAUGU.

With B12, the binding signal was 0.131 KA relative to UGCAUGU.

As to B13, the binding signal was 0.0927 KA relative to UGCAUGU. Under B14 stands 0.0678 KA relative to UGCAUGU; under B15, 0.134 KA relative to UGCAUGU.

Regarding B16, the binding signal is 0.0898 KA relative to UGCAUGU. Under B17 stands 0.124 KA relative to UGCAUGU; under B18, 0.131 KA relative to UGCAUGU. With B19 the figure was 0.0948 KA relative to UGCAUGU. As to B20, the binding signal was 0.132 KA relative to UGCAUGU. With B21 the figure was 0.103 KA relative to UGCAUGU; with B22, 0.0582 KA relative to UGCAUGU. On to B23, for which the binding signal is 0.0706 KA relative to UGCAUGU. B24: the binding signal is 0.158 KA relative to UGCAUGU. Consider B25, for which the binding signal was 0.0699 KA relative to UGCAUGU. With B26 the figure was 0.103 KA relative to UGCAUGU; with B27, 0.0513 KA relative to UGCAUGU; with B28, 0.156 KA relative to UGCAUGU. With B29 the figure was 0.19 KA relative to UGCAUGU; with B30, 0.217 KA relative to UGCAUGU; with B31, 0.163 KA relative to UGCAUGU.
